Substrate in the data set: NC(=O)c1ccc[n+]([C@@H]2O[C@H](COP(=O)([O-])OP(=O)(O)OC[C@H]3O[C@@H](n4cnc5c(N)ncnc54)[C@H](O)[C@@H]3O)[C@@H](O)[C@H]2O)c1
The experiment in a line: NAD^+-dependent H2 oxidation kinetics of ReSH (Michaelis-Menten). Type of data set: biochemical. Conditions: Kpi buffer pH 7.0, absorbance at 365 nm.

The mark [1] stands for this setting: other: 0% O2, NAD^+ varied 0 to 2 mM.
The mark [2] stands for this setting: other: 5% O2, NAD^+ varied 0 to 2 mM.

For orientation: Km means the substrate concentration at which the rate is half of its maximum. A word on the kcat: it is the number of substrate molecules converted per active site and unit of time at saturation.

B1: Ralstonia eutropha-derived hydrogenase (ReSH), wild type, SEQ ID NO: 1 to SEQ ID NO: 5 (Cupriavidus necator H16) (protein)
chain 1: MASWSHPQFEKGADSRITTILERYRSDRTRLIDILWDVQHEYGHIPDAVLPQLGAGLKLSPLDIRETASFYHFFLDKPSGKYRIYLCNSVIAKINGYQAVREALERETGIRFGETDPNGMFGLFDTPCIGLSDQEPAMLIDKVVFTRLRPGKITDIIAQLKQGRSPAEIANPAGLPSQDIAYVDAMVESNVRTKGPVFFRGRTDLRSLLDQCLLLKPEQVIETIVDSRLRGRGGAGFSTGLKWRLCRDAESEQKYVICNADEGEPGTFKDRVLLTRAPKKVFVGMVIAAYAIGCRKGIVYLRGEYFYLKDYLERQLQELREDGLLGRAIGGRAGFDFDIRIQMGAGAYICGDESALIESCEGKRGTPRVKPPFPVQQGYLGKPTSVNNVETFAAVSRIMEEGADWFRAMGTPDSAGTRLLSVAGDCSKPGIYEVEWGVTLNEVLAMVGARDARAVQISGPSGECVSVAKDGERKLAYEDLSCNGAFTIFNCKRDLLEIVRDHMQFFVEESCGICVPCRAGNVDLHRKVEWVIAGKACQKDLDDMVSWGALVRRTSRCGLGATSPKPILTTLEKFPEIYQNKLVRHEGPLLPSFDLDTALGGYEKALKDLEEVTR
chain 2: MSRKLVIDPVTRIEGHGKVVVHLDDDNKVVDAKLHVVEFRGFEKFVQGHPFWEAPMFLQRICGICFVSHHLCGAKALDDMVGVGLKSGIHVTPTAEKMRRLGHYAQMLQSHTTAYFYLIVPEMLFGMDAPPAQRNVLGLIEANPDLVKRVVMLRKWGQEVIKAVFGKKMHGINSVPGGVNNNLSIAERDRFLNGEEGLLSVDQVIDYAQDGLRLFYDFHQKHRAQVDSFADVPALSMCLVGDDDNVDYYHGRLRIIDDDKHIVREFDYHDYLDHFSEAVEEWSYMKFPYLKELGREQGSVRVGPLGRMNVTKSLPTPLAQEALERFHAYTKGRTNNMTLHTNWARAIEILHAAEVVKELLHDPDLQKDQLVLTPPPNAWTGEGVGVVEAPRGTLLHHYRADERGNITFANLVVATTQNNQVMNRTVRSVAEDYLGGHGEITEGMMNAIEVGIRAYDPCLSCATHALGQMPLVVSVFDAAGRLIDERAR
For B1, under setting [1], the Km came to 393 ± 41 µM and the turnover number (kcat) came out at 39.7 ± 1.5 s⁻¹. For the same protein, under setting [2], the Michaelis-Menten constant (Km) turned out to be 364 ± 33 µM and the kcat came to 39.2 ± 1.3 s⁻¹.
